According to PubChem BioAssay AID1963576 (National Center for Advancing Translational Sciences (NCATS), 2024):
Among all 46,000 compounds or so, about 60 (0.1%) were called active. About 3% were inconclusive and are not listed. Calls come from the whole dose curve; as a rule, active = well fitted inhibition curve with a large enough effect; inconclusive = small, poorly fitted or top-dose-only effect; inactive = no such curve, though single readings can be large or run the other way. This is one part of the list.

Assay: Primary qHTS assay for Inhibitors of ovarian cancer metastasis using an organotypic tumor microenvironment (TME) model.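 For activity change, negative = inhibition: plate controls were DMSO wells for no effect and tomatine positive control wells for full effect.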 Note: nearly all actives have a fitted effect of over 65% in size.
Conditions: SKOV3ip1-GFP adhesion/invasion on 3D omental model, fluorescence; series mostly up to 45.8 µM; activity change, negative = inhibition: at the top concentration
How it was run: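 Adhesion/invasion was scored as fixed GFP-labeled SKOV3ip1 cell counts (488/509 nm), normalized to DMSO and tomatine controls. Cancer cells in serum-free medium, with four compound doses (0.36-46 umol/L), sat 2 hr at RT then 16 hr at 37 C on a 48 hr fibroblast/mesothelial/ECM culture.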

Activity change, negative = inhibition, inactive:
COc1ccc(-c2nc3cc(C(C)C)ccc3o2)cc1NC(=O)c1ccc(C)c(Cl)c1 0.812%
CCOC(=O)C1CCN(C(=O)c2ccc3c(c2)sc2nc(-c4ccc(C)cc4)cn23)CC1 -0.167%
Cc1ccc(CCNC(=O)c2ccc(CS(=O)(=O)Cc3cccc(C)c3)o2)cc1 -0.837%
CCCCCC(=O)N(c1ccc(OCC)cc1)S(=O)(=O)c1ccc2c(c1)n(C)c(=O)n2C -1.55%
Cc1ccc(NC(=O)Cn2cc3c(n2)CCC(C)C3)cc1C (configuration not stated) -12.3%
COc1ccc(Cn2ccc3nc(C)c(C(=O)N4CCN(c5ccccc5F)CC4)cc3c2=O)cc1 -10.8%
CCn1ccc2cc(S(=O)(=O)N3CCCN(C(=O)NCC(=O)OC)CC3)ccc21 8.88%
Cc1cc(C)c(S(=O)(=O)NCc2csc(-c3ccccc3)n2)c(C)c1 -6.3%
Cc1ccc2nc(N3CCC(C(=O)NCc4ccc(F)cc4)CC3)[nH]c2c1 2.04%
COC(=O)c1ccc(Oc2nc3c(c(=O)n(C)c(=O)n3C)n2C(C)C)cc1 -3.65%
CCc1ccccc1N(C)C(=O)c1nn(C)c2c1CSc1ccccc1-2 -5.68%
CCC12CN3CC(C)(CN(C1)C3c1c[nH]c3ccc(OC)cc13)C2=O (configuration not stated) 3.33%
O=C1CN(C(=O)c2ccc(S(=O)(=O)N3CCCCC3)cc2)C(c2ccc(F)cc2)c2cc(Br)ccc2N1 (configuration not stated) 5.62%
CC(=O)N1CCc2cc(CNS(=O)(=O)c3ccc(C(C)(C)C)cc3)ccc21 7.48%
Cc1ccccc1NC(=O)Cn1c(=O)n(CCC(=O)NCc2ccc3c(c2)OCO3)c(=O)c2sccc21 -1.47%
CCN(CC)C(=O)c1sc2c(c1C)c(=O)n(-c1ccc(C)c(C)c1)c(=O)n2Cc1cccc(Cl)c1 -3.29%
CCC(Sc1nc2cc3c(cc2c(=O)n1CCCC(=O)NCc1ccc(OC)cc1)OCO3)C(=O)NCCCOC (configuration not stated) -0.0989%
O=C(C=Cc1cccnc1)NCCCCC1CCN(C(=O)c2ccccc2)CC1 3.84%
CC(CNC(=O)C1CCN(S(=O)(=O)c2ccc3c(ccn3C)c2)CC1)c1ccccc1 (configuration not stated) -2.63%
O=C(CSc1nc2c([nH]c3ccccc32)c(=O)n1-c1ccccc1)N1CCOCC1 -3.1%
O=C1CC(c2cccc(O)c2)c2cc3c(cc2N1)OCO3 (configuration not stated) -21.7%
Cc1ccc(OCCn2c(-c3ccc(Br)cc3)nc3ccccc3c2=O)cc1C -22.7%
COc1ccc(NC(=O)Cn2c(=O)n(Cc3ccccc3Cl)c(=O)c3cc(OC)c(OC)cc32)cc1OC -4.44%
COc1ccc(-c2coc3cc(O)ccc3c2=O)cc1 6.43%
CCN(CC)CCn1c(-c2ccccc2)csc1=Nc1ccccc1 4.33%
Cc1ccc(NC(=O)c2c(C)oc3ccc(O)c(CN4CCCCCC4)c23)cc1 -13.8%
Cc1c(CC(=O)NCCc2ccccc2F)c(=O)oc2cc(O)c(Cl)cc12 -21.3%
CCN(CCCNC(=O)c1cc(Nc2ccc(OC)cc2OC)nc2ccccc12)c1cccc(C)c1 -5.32%
Cc1ccc(CCNC(=O)c2c(C)oc3nc(C)nc(N4CCOCC4)c23)cc1 0.409%
O=c1oc2c(CN3CCCC3)c(O)ccc2cc1-c1ccccc1 5.06%
CCOCCCNC(=O)c1c(NC(=O)c2cc(=O)c3ccccc3o2)sc2c1CCC2 -16.4%
COc1ccccc1N1CCN(C(=O)Nc2cn(CC(C)C)c(=O)c3ccccc23)CC1 -1.08%
Cc1cccc(Cn2c(=O)n(Cc3ccc4c(c3)OCO4)c(=O)c3oc4ccccc4c32)c1 9.97%
Cc1ccc(S(=O)(=O)C(CNC(=O)Cc2ccc(Cl)cc2)c2cccs2)cc1 (configuration not stated) -1.79%
COc1ccc(NC(=O)c2c(NCc3cccs3)sc3c2CCCC3)cc1 -10.5%
Cc1ccc2c(=O)cc(C(=O)Nc3c(C(=O)Nc4cccc(Cl)c4)oc4ccccc34)oc2c1 6.14%
CC(C)c1ccc(NC(=O)Nc2csc3c2CCCC3)cc1 -0.463%
O=C(Nc1ccc(C(=O)OCc2cc(=O)n3c4c(sc3n2)CCCC4)cc1)c1ccc(Cl)cc1 -27.3%
CCOC(=O)c1ccc(NC(=O)Cn2ncc3c(C)n(Cc4ccccc4F)c(C)c3c2=O)cc1 -11.8%
Cn1cc(C(c2ccccc2)c2ccc(Cl)s2)c2ccccc21 (configuration not stated) -18.3%
Cc1ccc(N2C(=O)CSC23C(=O)N(CC(=O)NC2CCCCC2)c2ccccc23)cc1C (configuration not stated) -3.11%
CCOc1ccccc1NC(=O)CN1C(=O)COc2ccc(S(=O)(=O)N3CCCCC3)cc21 -9.26%
CCOc1cccc(NC(=O)C2CC(=O)N(C)C(=Nc3ccc(F)cc3)S2)c1 (configuration not stated) 2.44%
CSc1ncc(C(=O)NCc2ccc(C)cc2)c(-c2ccccc2)n1 3.12%
CCOC(=O)c1c(C)oc2ncnc(Nc3cc(Cl)ccc3OC)c12 -15.1%
O=C(c1cccn1-c1nnc(N2CCCCC2)s1)N1CCN(c2ccccc2)CC1 -3.1%
Clc1cccc(CSc2ccc(-c3cccs3)nn2)c1 6.51%
COc1ccccc1Cn1c(SCC(=O)C(C)(C)C)nc2ccccc2c1=O 4.87%
CCOc1ccccc1CNC(=O)CCCN1C(=O)c2cccnc2Oc2ccc(Cl)cc21 -4.73%
CCOC(=O)c1c(C)oc2nc(C)nc(N3CCN(c4ccc(OC)cc4)CC3)c12 6.49%
CCNC(=O)C1CCN(Cc2cc3ccccc3n2Cc2ccc(C)cc2)CC1 -9.14%
CC(C)C[C@H](NC(=O)[C@H](Cc1ccccc1)NC(=O)c1cnccn1)B(O)O -20%
Cc1oc(-c2cccc(Cl)c2)nc1CSCC(=O)NCc1ccccc1Cl 9.43%
CCOC(=O)C1CCN(C(=O)Cn2ncc3c4ccccc4n(C)c3c2=O)CC1 1.79%
N#Cc1ccc(CSc2nnc(-c3ccc(Br)cc3)o2)cc1 29.8%
CCS(=O)(=O)c1ccccc1C(=O)N1CCN(c2nc3ccccc3s2)CC1 -8.46%
CCn1c(=O)c2sccc2n2c(CCC(=O)NCc3ccc(Cl)cc3)nnc12 6.03%
CCCCNC(=O)Cn1cnc2sc(C)c(S(=O)(=O)N3CCN(c4ccccc4OC)CC3)c2c1=O 3.9%
Cc1cccc(NC(=O)c2cc3c(=O)n4ccccc4nc3n2C)c1C -9.24%
COc1ccccc1NC(=O)c1ncoc1-c1ccco1 -11.3%
CC(C)OCCCNC(=O)CN1C(=O)COc2ccc(S(=O)(=O)N3CCOCC3)cc21 -6.46%
Cc1csc2nc(COC(=O)c3ccc(NC(=O)C(C)C)cc3)cc(=O)n12 4.55%
Cc1ccc(OCC(=O)Nc2sc3c(c2C(N)=O)CCCC3)c(C(C)(C)C)c1 0.955%
COCCNC(=O)c1ccc(-c2nc(CN3CCc4ccccc43)c(C)o2)cc1 1.6%
Cc1ccc(-n2c(SCC(=O)Nc3ccc4c(c3)OCCO4)nc3c([nH]c4ccccc43)c2=O)cc1 -0.911%
CCOc1ccccc1C(=O)N(Cc1ccco1)Cc1ccccc1F -1.51%
Cc1ccc(C(=O)Nc2ccc(Br)cc2)cc1S(=O)(=O)NCc1ccccc1 -10.4%
COC(=O)c1ccccc1NC(=O)CSc1nc2nc(C)cc(C)n2n1 6.4%
CCOc1ccc2nc(NC(=O)c3ccccc3)sc2c1 0.0812%
CCOc1ccc(NC(=O)C(=O)NCCc2ccccc2)cc1 26.9%

outcome, inactive:
O=S(=O)(NCc1nc2cccnc2n1Cc1ccc(F)cc1)c1ccc(Cl)s1
COc1cccc(-c2cc(C(F)(F)F)n3nc(C)c(-c4ccccc4)c3n2)c1
Cc1ccccc1C(=O)NC1(C(F)(F)F)N=C(c2ccccc2)N(Cc2ccccc2)C1=O (configuration not stated)
Cc1ccc2nc(COc3cccc(NC(=O)c4cccc(Cl)c4)c3)cc(=O)n2c1
CCCCNC(=O)CSc1nc2cc3c(cc2c(=O)n1CCCCCC(=O)NCCc1ccc(OC)c(OC)c1)OCO3
O=C(COc1ccccc1[N+](=O)[O-])Nc1cc(-c2nc3cc(Cl)ccc3o2)ccc1Cl
Cc1ccc2cccc(NC(=O)c3ccc(C#N)cc3F)c2n1
CCOC(=O)C1CCCN(C(=O)CCS(=O)(=O)c2cc3c(cc2Cl)NC(=O)CO3)C1 (configuration not stated)
Cc1ccc(OCC(=O)Nc2ccc3nc(SCC(=O)N4CCOCC4)sc3c2)cc1C
CC(C)OC(=O)c1c(NC(=O)COc2cccc(Br)c2)sc2c1CCCC2
COc1ccc(-c2onc(C)c2C)cc1S(=O)(=O)N1CCN(c2ccc(Cl)cc2)CC1
Nc1nonc1C(=O)NCCNCc1cccc(Cl)c1Cl
Cc1ccc(-n2ncc3c(N(CC(C)C)CC(C)C)ncnc32)c(C)c1
O=C(COc1ccccc1[N+](=O)[O-])N1CCC(c2nc3ccccc3o2)CC1
Cn1cc(-c2cc3n(n2)CCC(=O)N3CC(=O)NCc2ccc(Cl)cc2)c2ccccc21
CC(C)C(=O)Nc1cccc(C(=O)Nc2nnc(CC(C)(C)C)s2)c1
CCOc1ccc(CNC(=O)c2ccc3c(c2)nnn3C2CCCC2)cc1
CCc1ccccc1NC(=O)c1cc2nc(-c3ccc(OC)c(OC)c3)cc(C(F)(F)F)n2n1
COc1cc2ccccc2cc1C(=O)Nc1ccc2oc(-c3ccc(Cl)cc3)nc2c1
COC(=O)c1ccc(NC(=O)Cn2c(=O)nc(-c3ccccc3)c3ccccc32)cc1
O=C(c1ccc(Br)s1)N(Cc1cccnc1)c1nc2ccc(F)cc2s1
Cc1ccc(CNC(=O)C2CCN(S(=O)(=O)c3c(C)noc3/C=C/c3c(C)cc(C)cc3C)CC2)cc1
Cc1ccc2nc(COc3ccccc3NC(=O)COc3ccccc3Cl)cc(=O)n2c1
COC(=O)CN1C(C(=O)c2ccccc2)=C(OC(=O)c2ccc(C)cc2)c2ccccc2S1(=O)=O
COc1ccc(CNC(=O)CCCN2C(=O)c3cccnc3Oc3ccc(Cl)cc32)cc1
Cc1cccc(NS(=O)(=O)c2nnc(NC(=O)c3cccc(C)c3)s2)c1
O=C(Cn1ncc2c3ccccc3n(Cc3ccccc3F)c2c1=O)NCCCc1ccccc1
